The list shows a part of the results, in another mix than the full data. At the low end of the ranking the order means little.
molecular target: AGO2 F182del S387D + S824A + S828D + S831D + S834A + del182-182 (UniProt Q9UKV8); assay: RNA Bind-n-Seq (nitrocellulose filter binding and sequencing); details: constant regions annealed to DNA blockers; guide miR-122 5' phosphate; 30 mM Tris pH 8.0, 100 mM potassium acetate, 2 mM magnesium acetate, 0.5 mM TCEP, 0.005% NP-40, 0.01 mg/ml yeast tRNA; 3 nM AGO2-miR-122, 100 nM RNA library …; high values mean tight binding

Sequence | binding signal (fold enrichment over input)
GAGUUCUACAGUCCGACGAUCCCAACACACCCCGCACCUGGAAUUCUCGGGUGCCAA / UGGAGUGUGACAAUGGUGUUUG / GATCGTCGGACTGTAGAACTC / TTGGCACCCGAGAATTCCA | 0.82
GAGUUCUACAGUCCGACGAUCCCAACACACUCCGCACCUGGAAUUCUCGGGUGCCAA / UGGAGUGUGACAAUGGUGUUUG / GATCGTCGGACTGTAGAACTC / TTGGCACCCGAGAATTCCA | 91
GAGUUCUACAGUCCGACGAUCCCAACAUACCUUACACCUGGAAUUCUCGGGUGCCAA / UGGAGUGUGACAAUGGUGUUUG / GATCGTCGGACTGTAGAACTC / TTGGCACCCGAGAATTCCA | 0.118
